According to PubChem BioAssay AID588795 (National Center for Advancing Translational Sciences (NCATS), 2011):
Among all 390,000 compounds or so, about 1,400 (0.36%) were called active. Inconclusive results, whose numbers are uncertain, are shown with a selection of clear calls. Calls follow the shape of the dose curve; as a rule, active = well fitted inhibition curve with a large enough effect; inconclusive = small, poorly fitted or top-dose-only effect; inactive = no such curve, though single readings can be large or run the other way. A potency beside an inconclusive call is a rough fit, not a confirmed value.

biological target: Flap endonuclease 1 (Homo sapiens) (UniProt P39748); test: qHTS Assay for the Inhibitors of Human Flap endonuclease 1 (FEN1).; also: nearly all actives have a fitted effect of over 65% in size; details: Recombinant FEN1 flap cleavage, fluorescence, 15 min; series mostly up to 114 µM
UniProt P39748, sequence (P39748 whole entry, looked up): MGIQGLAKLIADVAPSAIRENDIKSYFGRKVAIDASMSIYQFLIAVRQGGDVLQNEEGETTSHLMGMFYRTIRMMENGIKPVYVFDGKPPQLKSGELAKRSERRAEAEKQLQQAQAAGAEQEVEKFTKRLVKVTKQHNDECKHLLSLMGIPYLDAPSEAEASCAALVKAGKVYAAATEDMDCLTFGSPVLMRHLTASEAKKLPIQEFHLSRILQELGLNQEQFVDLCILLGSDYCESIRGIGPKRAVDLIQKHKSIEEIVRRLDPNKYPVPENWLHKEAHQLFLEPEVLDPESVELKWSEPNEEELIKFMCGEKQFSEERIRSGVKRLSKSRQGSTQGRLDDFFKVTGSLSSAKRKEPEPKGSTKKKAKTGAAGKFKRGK
In short: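 Nuclease activity of 10 nM FEN1 was measured after 15 min of room-temperature exposure to titrated compounds, by adding 50 nM flap substrate and reading plates at 0 and 15 min.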
Potency is read from the fitted curve at half-maximal effect; tags tell the direction and shape of the fitted curve.

`COc1ccccc1N1CCN(C(=O)c2ccc(-c3ccc(Cl)cc3)o2)CC1` was tested. Which Potency did it give?
Its Potency is inconclusive: 44.7 µM [inhibitor, partial curve].

For `O=C(Cc1ccc(S(=O)(=O)N2CCOCC2)s1)Nc1cc(C(F)(F)F)cc(C(F)(F)F)c1`, which Potency is on record?
Its Potency is inconclusive: 11.2 µM [inhibitor, partial curve].

How did the Potency turn out when `Cc1cc(C)c2c(=O)cc(C(=O)Nc3ccc(S(=O)(=O)Nc4onc(C)c4C)cc3)oc2c1` was run?
Its Potency is inconclusive: 50.1 µM [inhibitor, partial curve].

How did the Potency turn out when `CCCc1cc(=O)[nH]c(SCC(=O)Nc2sccc2C#N)n1` was run?
Its Potency is inconclusive: 89.1 µM [inhibitor, partial curve, poor fit].

Which Potency does the source give for `Clc1ccc(-c2nnc3sc(Cc4cccs4)nn23)c(Cl)c1` here?
The Potency was “inactive”.

With `O=c1[nH]c(-[n+]2ccccc2)c(/C=N/N=C(\[O-])c2ccccc2)s1` as the compound, how does the Potency read?
Its Potency is “inactive”.

For `CCN(c1ccccc1)S(=O)(=O)c1ccc2[nH]cc(C(=O)N3CCOCC3)c(=O)c2c1`, which Potency is on record?
Its Potency is “inactive”.

How did the Potency turn out when `CCOC(=O)c1noc2ncn(CC(=O)Nc3cccc(Cl)c3)c(=O)c12` was run?
Its Potency is “inactive”.

For `COc1ccc2c(Sc3ccc(Cl)cc3)c(C(=O)N3CCC(C)CC3)[nH]c2c1`, which Potency is on record?
The Potency was inconclusive: 44.7 µM [inhibitor, partial curve, poor fit].

`COc1ccc(CC(=O)Nc2nc(-c3ccc(OC)c(OC)c3)cs2)cc1OC` was tested. Which Potency did it give?
Its Potency is inconclusive: 44.7 µM [inhibitor, partial curve, poor fit].

With `CCOC(=O)c1ccc(NC(=O)c2cn(-c3ccccc3)nc2-c2ccc(OC)c(OC)c2)cc1` as the compound, how does the Potency read?
Its Potency is inconclusive: 89.1 µM [inhibitor, single point].

`CCOC(=O)/C(=C/C=C1\Sc2cc(OCC)c(OCC)cc2N1CC)C(C)=O` was tested. Which Potency did it give?
The Potency was inconclusive: 79.4 µM [inhibitor, partial curve, poor fit].

Which Potency does the source give for `O=C(O)c1ccc2c(c1)C(=O)N(c1cccc(C(=O)/C=C/c3ccccc3)c1)C2=O` here?
The Potency was inconclusive: 89.1 µM [inhibitor, single point].

Which Potency does the source give for `CN1CCN(c2nc(-c3ccc(C(C)(C)C)cc3)nc3ccccc23)CC1` here?
Its Potency is inconclusive: 56.2 µM [inhibitor, partial curve, poor fit].

With `CC(Cc1cccs1)NC(=S)Nc1ccc(Cl)cc1` (configuration not stated) as the compound, how does the Potency read?
The Potency was inconclusive: 79.4 µM [inhibitor, partial curve, poor fit].

How did the Potency turn out when `CCOC(=O)c1c(CSc2ccccc2)n(C)c2cc(Br)c(OCC(O)CNC(CO)(CO)CO)cc12` (configuration not stated) was run?
The Potency was active: 44.7 µM.

Which Potency does the source give for `COc1cc(/C=C(/C#N)c2nc3ccccc3[nH]2)ccc1OCc1ccc(C(=O)O)o1` here?
Its Potency is inconclusive: 39.8 µM [inhibitor, full curve].

With `Nc1cc2c(cc1[N+](=O)[O-])-c1ccccc1C2=NO` as the compound, how does the Potency read?
Its Potency is inconclusive: 35.5 µM [inhibitor, partial curve].

For `CCc1nc(Nc2ccc3c(c2)OCCO3)c2oc3ccccc3c2n1`, which Potency is on record?
Its Potency is inconclusive: 89.1 µM [inhibitor, single point].

How did the Potency turn out when `C=CC(=O)Nc1ccc(Nc2ccnc(Nc3ccc(N4CCN(C)CC4)cc3)n2)cc1` was run?
Its Potency is inconclusive: 31.6 µM [inhibitor, full curve].

`Cc1ccc2scc(N3CCCCC3)c(=O)c2c1` was tested. Which Potency did it give?
The Potency was “inactive”.

For `COc1ccc(NC(=O)CC2C(=O)N(c3ccc(F)cc3)C(=O)N2CCc2sccc2C)cc1` (configuration not stated), which Potency is on record?
The Potency was inconclusive: 50.1 µM [inhibitor, partial curve, poor fit].

Which Potency does the source give for `Cc1ccc(-c2nc3sc(C(N)=O)c(N)c3c3c2CCCC3)cc1` here?
Its Potency is inconclusive: 70.8 µM [inhibitor, partial curve, poor fit].

With `C[C@]12c3[nH]c4cc(-c5ccco5)ccc4c3CCN1C(=O)[C@@H](CC(=O)NCc1ccco1)C[C@@H]2C(=O)N1CCCCC1` as the compound, how does the Potency read?
The Potency was inconclusive: 89.1 µM [inhibitor, single point].

With `CCOC(=O)C(=O)Nc1nnc2n1CCS2` as the compound, how does the Potency read?
Its Potency is “inactive”.

Which Potency does the source give for `COc1cc(/C=N/Nc2ncnc3sc4c(c23)CCC4)ccc1O` here?
The Potency was inconclusive: 50.1 µM [inhibitor, partial curve, poor fit].

For `NS(=O)(=O)c1ccc(CCNC(=O)COC(=O)Cc2ccc([N+](=O)[O-])cc2)cc1`, which Potency is on record?
Its Potency is “inactive”.

`N#Cc1c(-c2ccc(F)cc2)cc(-c2ccccc2)nc1SCC(=O)NCC(=O)O` was tested. Which Potency did it give?
The Potency was inconclusive: 89.1 µM [inhibitor, single point].

`CCn1c2ccc(C)cc2c2nc3cc(C(=O)O)ccc3nc21` was tested. Which Potency did it give?
Its Potency is inconclusive: 79.4 µM [inhibitor, single point].

With `CCOc1cc(C2NC(=O)c3c(sc4c3CCN(C)C4)N2)ccc1OC(=O)c1ccccc1Cl` (configuration not stated) as the compound, how does the Potency read?
The Potency was active: 89.1 µM.

How did the Potency turn out when `COc1ccc(CC(NC(C)=O)C(=O)NC2CCN(C(=O)c3cc(OC)c(OC)c(OC)c3)CC2)cc1` (configuration not stated) was run?
The Potency was inconclusive: 89.1 µM [inhibitor, single point].

Which Potency does the source give for `O=C1/C(=C\c2ccc(O)cc2)SC(=S)N1c1cccnc1` here?
The Potency was inconclusive: 79.4 µM [inhibitor, single point].

`O=Cc1cccc(OC(=O)/C=C/c2ccco2)c1` was tested. Which Potency did it give?
The Potency was inconclusive: 22.4 µM [inhibitor, full curve, poor fit].

Which Potency does the source give for `COc1ccc2[nH]c(=O)c(CN(Cc3ccco3)C(c3nnnn3Cc3ccccc3)C(C)C)cc2c1` (configuration not stated) here?
Its Potency is “inactive”.

Which Potency does the source give for `O=C(CCc1ccc(O)c(O)c1)N/N=C/c1cc2c(cc1[N+](=O)[O-])OCO2` here?
The Potency was inconclusive: 44.7 µM [inhibitor, partial curve].

`Cc1ccc2oc(-c3cccc(NC(=O)COc4ccc(Cl)cc4C)c3C)nc2c1` was tested. Which Potency did it give?
The Potency was “inactive”.

How did the Potency turn out when `COc1ccc(OC)c(-c2csc(NC(=O)COC(=O)c3ccc(NC(=O)CC#N)cc3)n2)c1` was run?
The Potency was active: 79.4 µM.

`O=C(/C=C/c1ccccc1)c1ccc2ccccc2c1` was tested. Which Potency did it give?
Its Potency is “inactive”.

With `O=C(Nc1ccccc1Cl)c1ccc(C(=O)Nc2ccccc2Cl)cc1` as the compound, how does the Potency read?
Its Potency is inconclusive: 89.1 µM [inhibitor, partial curve].

With `CCN(CC)c1ccc(C=C2C(=O)OC3(CCCC3)OC2=O)cc1` as the compound, how does the Potency read?
Its Potency is “inactive”.

For `O=C(CCN1C(=O)/C(=C/c2ccc3c(c2)OCO3)SC1=S)Nc1ccc(C(=O)O)cc1`, which Potency is on record?
Its Potency is inconclusive: 89.1 µM [inhibitor, single point].

`CCOC(=O)c1cc(-c2ccc(OC)cc2)nc2c1c(C)nn2CCC#N` was tested. Which Potency did it give?
Its Potency is inconclusive: 89.1 µM [inhibitor, partial curve, poor fit].

For `C/C(=N\NC(=O)c1nn(C)cc1Br)c1cccc(NC(=O)C(C)(C)C)c1`, which Potency is on record?
The Potency was inconclusive: 89.1 µM [inhibitor, single point].

`CC[C@@H](C)[C@@H](C(=O)Nc1ccc(C)cc1)N1Cc2ccccc2C1=O` was tested. Which Potency did it give?
The Potency was inconclusive: 89.1 µM [inhibitor, partial curve, poor fit].

Which Potency does the source give for `CC1CCC2(CC1)NC(=O)N(CC(=O)Nc1cccc(S(=O)(=O)N3CCCCC3)c1)C2=O` (configuration not stated) here?
The Potency was inconclusive: 20 µM [inhibitor, partial curve, poor fit].

`COc1ccc(/C=C2\Oc3cc(OCC(=O)N4CCC(C(=O)O)CC4)ccc3C2=O)c(OC)c1` was tested. Which Potency did it give?
Its Potency is inconclusive: 79.4 µM [inhibitor, single point].

`NC(=O)CCCn1c(C(=O)c2cc(Cl)c(N)c(Cl)c2)c2ccc([N+](=O)[O-])cc2[n+]1[O-]` was tested. Which Potency did it give?
Its Potency is inconclusive: 79.4 µM [inhibitor, partial curve, poor fit].

For `COc1ccc(OC)c2sc(NC(=O)C3COc4ccccc4O3)nc12` (configuration not stated), which Potency is on record?
Its Potency is inconclusive: 31.6 µM [inhibitor, single point].

`CCOC(=O)c1c(N)sc2c(OC)c(Br)ccc12` was tested. Which Potency did it give?
Its Potency is inconclusive: 89.1 µM [inhibitor, partial curve, poor fit].

Which Potency does the source give for `O=C(Nn1cc(C(=O)Nc2ccccc2F)c2ccccc2c1=O)c1cnccn1` here?
Its Potency is “inactive”.

How did the Potency turn out when `CCOC(=O)c1c(N2C(=O)Nc3cc(Cl)c(Cl)cc3N2O)sc2c1CCCCC2` was run?
The Potency was inconclusive: 56.2 µM [inhibitor, partial curve, poor fit].

For `Cc1ccc(NC(=O)c2nc(S(=O)(=O)Cc3ccccc3F)ncc2Cl)cc1`, which Potency is on record?
Its Potency is inconclusive: 89.1 µM [inhibitor, single point].

For `CCCc1ccc(OCc2ccc(C(=O)N3CCN(c4ccccn4)CC3)o2)c(OC)c1`, which Potency is on record?
The Potency was inconclusive: 79.4 µM [inhibitor, partial curve, poor fit].

Which Potency does the source give for `CCCCCn1c(=O)[nH]c2cc(C(=O)Nc3ccc(OC)c(OC)c3)ccc2c1=O` here?
Its Potency is inconclusive: 89.1 µM [inhibitor, partial curve].

Which Potency does the source give for `CCCN(CCC)C(C(=O)Nc1cccc(OC)c1)c1ccccc1` (configuration not stated) here?
The Potency was inconclusive: 89.1 µM [inhibitor, partial curve, poor fit].

For `CCOc1ccc(C(=O)c2oc3ccccc3c2NC(=O)c2cc(-c3ccccc3)on2)cc1`, which Potency is on record?
Its Potency is “inactive”.

Which Potency does the source give for `CCCSc1cc(NCCOC(C)=O)c([N+](=O)[O-])c2nonc12` here?
The Potency was “inactive”.

`COc1ccc(S(=O)(=O)N(CCc2ccccc2)CC(=O)Nc2cc(C)ccc2C)cc1` was tested. Which Potency did it give?
The Potency was inconclusive: 70.8 µM [inhibitor, partial curve, poor fit].

Which Potency does the source give for `CC(C)(C)[C@H]1COC(=O)[C@H](Cc2ccc(F)cc2)CC/C=C/C[C@@H](CC(=O)N[C@H](CO)Cc2ccccc2)C(=O)N1` here?
Its Potency is inconclusive: 89.1 µM [inhibitor, single point].

With `COc1cc(Cl)c(C)cc1Nc1c2c(nc3ccccc13)CCC2` as the compound, how does the Potency read?
The Potency was inconclusive: 79.4 µM [inhibitor, partial curve, poor fit].

Which Potency does the source give for `CCc1cccc(CC)c1NC(=O)c1c(C)oc2ccc(O)c(CN3CCOCC3)c12` here?
The Potency was “inactive”.

For `Cc1ccc2c(c1)-c1c(c(C(=O)NCCc3ccccc3)nn1C)CS2`, which Potency is on record?
Its Potency is “inactive”.
